Assay results: PubChem BioAssay AID588342 (National Center for Advancing Translational Sciences (NCATS), 2011)
Several values for one entry are separate records, joined by “and”; a condition that tells them apart may be missing. Identical values can stand only once. About 25,000 (6.9%) of roughly 360,000 compounds were called active. Inconclusive results, whose numbers are uncertain, are shown with a selection of clear calls. Calls follow the shape of the dose curve; as a rule, active = well fitted inhibition curve with a large enough effect; inconclusive = small, poorly fitted or top-dose-only effect; inactive = flat fitted curve, though single readings scatter. Potencies of inconclusive entries are doubtful fits and often do not repeat. Where a structure was tested more than once in an assay, its records may differ in their call.

These molecules were tested against Luciferin 4-monooxygenase (Photinus pyralis) (UniProt P08659) (assay: qHTS profiling assay for firefly luciferase inhibitor/activator using purifed enzyme and Km concentrations of substrates (counterscreen for miR-21 project)). Conditions: purified FLuc, luminescence inhibition; series mostly up to 57.5 µM.
Method in brief: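 Biochemical qHTS of compounds, final roughly 60 µM downward over six points, against 10 nM purified firefly luciferase using Km concentrations of substrates (10 uM D-luciferin, 10 uM ATP) in Tris acetate pH 7.5 buffer; luminescence output.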
Also: nearly all actives have a fitted effect of over 55% in size.
Potency is read from the fitted curve at half-maximal effect; tags tell the direction and shape of the fitted curve.

UniProt P08659, sequence (P08659 whole entry, looked up): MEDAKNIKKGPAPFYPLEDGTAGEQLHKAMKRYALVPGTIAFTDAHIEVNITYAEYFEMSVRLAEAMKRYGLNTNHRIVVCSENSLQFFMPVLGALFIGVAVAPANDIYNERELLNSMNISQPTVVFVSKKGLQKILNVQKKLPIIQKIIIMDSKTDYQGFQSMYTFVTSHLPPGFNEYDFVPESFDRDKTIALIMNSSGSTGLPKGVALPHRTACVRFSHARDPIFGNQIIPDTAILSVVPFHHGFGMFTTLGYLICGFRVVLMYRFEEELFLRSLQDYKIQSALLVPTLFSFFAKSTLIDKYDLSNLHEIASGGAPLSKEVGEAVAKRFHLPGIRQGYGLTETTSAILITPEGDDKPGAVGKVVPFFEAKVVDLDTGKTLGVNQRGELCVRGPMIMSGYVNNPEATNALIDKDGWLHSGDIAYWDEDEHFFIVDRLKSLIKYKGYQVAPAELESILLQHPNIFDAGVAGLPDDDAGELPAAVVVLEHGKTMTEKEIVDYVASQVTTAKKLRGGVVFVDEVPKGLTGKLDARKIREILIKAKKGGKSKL

Row | SMILES | Potency
1 | CCn1ccnc1CN(C)Cc1cn(-c2cccc(C)c2)nc1-c1cccc(F)c1 | inconclusive: 37.9 µM [inhibitor, single point]
2 | Cc1cccc(-c2noc(-c3ccc(NCc4cccnc4)c([N+](=O)[O-])c3)n2)c1 | inconclusive: 30.1 µM [inhibitor, single point]
3 | CN(Cc1ccco1)S(=O)(=O)c1nnc(NC(=O)c2ccccc2)s1 | active: 23.9 µM
4 | CS(=O)(=O)Nc1ccccc1C(=O)Nc1cccc(Cl)c1 | inconclusive: 26.9 µM [inhibitor, single point]
5 | CCN(CC)C(=O)COc1ccc(-c2ccccc2)cc1 | active: 13.5 µM
6 | COc1cc(C(=O)C(=O)c2ccc(O)c(OC)c2)ccc1O | inconclusive: 37.9 µM [inhibitor, partial curve, poor fit]
7 | CCC(=O)Nc1cccc(OCc2cc(=O)n3cc(C)ccc3n2)c1 | inconclusive: 30.1 µM [inhibitor, single point]
8 | COc1ccc(CCn2c(-c3cccc([N+](=O)[O-])c3)nc3nc4ccccc4nc32)cc1OC | inactive
9 | c1ccc(-c2cn3c4c(sc3n2)CCCC4)cc1 | active: 0.151 µM
10 | O=C(CSc1ccccc1)Nc1cccc(S(=O)(=O)N2CCCCC2)c1 | inconclusive: 23.9 µM [inhibitor, single point]
11 | COCC(=O)N1CCN(c2nc3ccccc3o2)CC1 | inactive
12 | CC1CN(C(=S)Nc2cccc(Cl)c2Cl)CC(C)O1 (centres undefined) | inactive
13 | Oc1ccc(Br)cc1/C=N/N1CCN(Cc2ccccc2)CC1 | inconclusive: 23.9 µM [inhibitor, single point]
14 | CN(C)C(=O)c1coc2nc3ccccc3nc12 | inconclusive: 23.9 µM [inhibitor, partial curve, poor fit]
15 | CNC(=S)SCCOc1ccc(C)cc1 | active: 15.1 µM
16 | Cc1nc(-c2ccc([N+](=O)[O-])cc2)sc1C(=O)O | active: 26.9 µM
17 | Cn1c(/C=C/c2ccccc2)nc2ccccc2c1=O | inconclusive: 21.3 µM [inhibitor, partial curve]
18 | CC(=O)NS(=O)(=O)c1ccc(NC(=O)c2ccc3c(c2)OCO3)cc1 | inconclusive: 26.9 µM [inhibitor, single point]
19 | CN(CC1CCOCC1)C(=O)CC1C(=O)NCCN1Cc1ccc(-c2ccccc2)cc1 (centres undefined) | inactive
20 | COc1ccc(NC(=O)NNC(=O)C(O)(c2ccccc2)c2ccccc2)cc1 | inconclusive: 37.9 µM [inhibitor, partial curve, poor fit]
21 | Nc1nnc(SCC(=O)c2ccco2)s1 | inactive
22 | COc1ccc(NC(=O)C(=O)NNC(=O)c2cccs2)c(OC)c1 | inconclusive: 37.9 µM [inhibitor, single point]
23 | COc1cccc(C2=N/C(=C\N(C)C)C(=O)O2)c1 | inconclusive: 26.9 µM [inhibitor, single point]
24 | COCCn1c(-c2ccco2)nc2nc3ccccc3nc21 | inconclusive: 21.3 µM [inhibitor, single point]
25 | O=C(/C=C/c1ccco1)NC(=S)Nc1cc(-c2nc3ccccc3s2)ccc1Cl | inconclusive: 21.3 µM [inhibitor, partial curve]

Row | SMILES | Potency
26 | Cn1c(SCc2ccccc2Cl)nc(=O)c2c1NC(=O)CC2c1cc(F)ccc1F (centres undefined) | inconclusive: 15.1 µM [inhibitor, partial curve]
27 | CCOC(=O)Cc1csc(NC(=O)c2sc3nc4c(C)cc(C)cc4cc3c2N)n1 | inconclusive: 10.7 µM [inhibitor, partial curve]
28 | CCOc1ccc(C(=O)NCCc2sc(-c3ccc(F)cc3)nc2C)cc1 | inconclusive: 42.6 µM [inhibitor, partial curve, poor fit]
29 | COc1ccc(Nc2ncc(C(=O)N3CCN(c4ccccc4OC)CC3)c3ccccc23)cc1 | inconclusive: 21.3 µM [inhibitor, partial curve] and inconclusive: 15.1 µM [inhibitor, partial curve, poor fit]
30 | CCOC(=O)c1ccc(NC(=O)CN2C(=O)c3cccnc3Sc3ccccc32)cc1 | inconclusive: 19 µM [inhibitor, partial curve]
31 | C/C(=N/NC(=O)c1ccoc1C)c1ccc(N2CCOCC2)cc1 | inconclusive: 23.9 µM [inhibitor, partial curve, poor fit]
32 | CCOC(=O)c1ccccc1NC(=O)COC(=O)CCNS(=O)(=O)c1ccccc1 | inactive
33 | Cc1cc(C)nc(NC(=O)c2cc(-c3ccc(C)s3)nc3ccccc23)c1 | inconclusive: 12 µM [inhibitor, partial curve]
34 | Cc1c(C(=O)/C=C/N(C)C)nnn1-c1ccc(F)c(Cl)c1 | inconclusive: 23.9 µM [inhibitor, single point]
35 | O=C(Cn1c(=O)ccc2cc(S(=O)(=O)N3CCCC3)ccc21)Nc1ccc(Cl)cc1 | inactive
36 | CC(Cc1cccs1)NC(=O)c1cccc(Cl)c1 (centres undefined) | inconclusive: 21.3 µM [inhibitor, single point]
37 | CN(CC(=O)Nc1ccc(F)cc1)C(=O)COC(=O)/C=C/c1ccc(OC(F)F)cc1 | inconclusive: 23.9 µM [inhibitor, partial curve, poor fit]
38 | Cc1cccc(NS(=O)(=O)c2ccc3c(c2)CCN3C(=O)C2CC2)c1C | inconclusive: 13.5 µM [inhibitor, partial curve, poor fit]
39 | Cc1nnc2ccc(-c3cccc(NC(=O)c4ccco4)c3)nn12 | inactive
40 | Cc1ccc(NC(=O)Nc2cccs2)c(C)c1 | inconclusive: 26.9 µM [inhibitor, single point]
41 | O=C(CSc1cccc2cccc(Cl)c12)OCC(=O)N1CCN(C(=O)c2ccco2)CC1 | inconclusive: 37.9 µM [inhibitor, partial curve, poor fit]
42 | CN(CCCNC(=O)c1cc2c(=O)n(C)c3ccccc3c2s1)Cc1ccccc1 | inactive
43 | O=C(CCNC(=O)c1ccccc1Cl)Nc1nc(-c2ccc(F)cc2)cs1 | inactive
44 | CCn1cc(S(=O)(=O)Nc2cc(F)ccc2C)cn1 | inactive
45 | CCOC(=O)c1ccc(NC(=O)N2CCCCC2)cc1 | active: 13.5 µM
46 | NNC(=O)Cn1nc(Cc2ccccc2)n(N)c1=O | inactive
47 | CN(C)CCCNC(=O)c1ccc(/C=N/O)nc1 | active: 10.7 µM
48 | COC(=O)c1c(NC(=O)/C=C/c2ccc(OC)cc2)sc2c1CCC2 | inactive
49 | CCCC(=O)n1nc(-c2ccc(Cl)cc2)nc1SC | inconclusive: 16.9 µM [inhibitor, partial curve]
50 | CCCCCCc1ccc(-c2ncc(N)cn2)cc1 | active: 12 µM

Row | SMILES | Potency
51 | COc1cc2c(cc1OC)C(C1C(=O)CC(C)CC1=O)N(C(=O)CCl)CC2 (centres undefined) | inactive
52 | Cc1ccc(C(=O)Nc2ccc3oc(-c4cc(Br)ccc4Cl)nc3c2)cc1 | inactive
53 | Oc1c(/C=N/Nc2cccc3cccnc23)ccc2ccccc12 | inconclusive: 3.01 µM [inhibitor, full curve, poor fit]
54 | CCOc1cccc(OCCOc2ccccc2[N+](=O)[O-])c1 | inconclusive: 23.9 µM [inhibitor, partial curve]
55 | Clc1cccc(-n2ncc3c(Nc4ccc5c(c4)OCCO5)ncnc32)c1 | active: 13.5 µM
56 | Cc1occc1C(=O)Nc1nnc(C2CCCCC2)s1 | inconclusive: 21.3 µM [inhibitor, partial curve]
57 | COC(=O)c1ccc(NC(=S)NC2CC3CCC2C3)cc1 (centres undefined) | active: 21.3 µM
58 | Cc1ccc2[nH]c(=O)c(COC(=O)C3CCCO3)cc2c1 (centres undefined) | inconclusive: 26.9 µM [inhibitor, single point]
59 | C(=C\c1ccccc1)/CSc1nc2ncccc2[nH]1 | inconclusive: 9.53 µM [inhibitor, partial curve]
60 | COc1ccc(N2CCN(C(=O)Cn3c(-c4cccs4)cc4ccccc43)CC2)cc1 | inactive
61 | Cc1nc2cc(OCc3cc(C(=O)NC(C)c4cn(C)nc4C)no3)ccc2s1 (centres undefined) | inactive
62 | O=C(CSc1nc2ccsc2c(=O)n1Cc1ccccc1F)NCc1ccccc1Cl | inactive
63 | O=C(Nc1ccc(CN2CCCCC2)cc1)c1cccc(F)c1 | inconclusive: 21.3 µM [inhibitor, single point]
64 | COc1ccc(Cl)cc1C(=O)Nc1ccc(NC(=O)c2ccco2)cc1 | inactive
65 | COc1ccc2nc3ccccc3nc2c1N | active: 4.78 µM
66 | O=C(O)/C=C/C(=O)Nc1ccc(Oc2ncnc3cc(Cl)ccc23)nc1 | inconclusive: 19 µM [inhibitor, partial curve]
67 | COc1ccccc1CN1CCN(Cc2nc(-c3ccccc3)no2)CC1 | inconclusive: 19 µM [inhibitor, partial curve]
68 | COc1ccc(C(=O)Nc2c(Cl)cc(Cl)cc2C(=O)N2CCC(C)CC2)cc1 | inactive
69 | Cc1ccc(/C=C/c2nc3sc(C(=O)O)c(C)c3c(=O)[nH]2)cc1[N+](=O)[O-] | inconclusive: 21.3 µM [inhibitor, partial curve, poor fit]
70 | CC(C)(C)c1ccc(C(=O)NNC(=O)c2ccc(Cl)cc2)cc1 | inactive
71 | C=CCOc1c(Br)cc(/C=C2/NC(=S)N(C(C)=O)C2=O)cc1OC | active: 1.51 µM
72 | COc1ccc(C2=NN(S(C)(=O)=O)C(c3cccs3)C2)cc1OC (centres undefined) | active: 16.9 µM
73 | CCc1cc2c(=O)c(-n3cnc4ccccc43)coc2cc1O | inconclusive: 37.9 µM [inhibitor, partial curve, poor fit]
74 | CN(C)CCNC(=O)C(=O)NCC(c1cccnc1)N1CCN(c2ccccc2)CC1 (centres undefined) | inconclusive: 19 µM [inhibitor, partial curve]
